We go through 120 sequences from the supplement of paper PMC10126150.

For this series, the system named is ATP. Nature of the series: switch fluorescence ratio, 500 uM ATP over buffer (Cy3 cluster intensity, sum of 5 cycles each) (fold (ratio)); higher = stronger signal-on switching upon ATP binding; sequences stand for … in TCGTCGGCAGCGTCAGATGTGTATAAGAGACAGTTTTTTTTTTTTTTTTTTTTTTTTT…TC. The following applies: aptamer strand: ATP DNA aptamer (quencher-CACCTGGGGGAGTATTGCGGAGGAAGG + anchor), 100 nM annealed; ATP concentration: 500 uM; one replicate. The procedure, abridged: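 Exposure to 500 uM ATP lasted 15 min at 22 °C before imaging, and a selection-buffer image was taken beforehand, for Cy3-labelled switching-strand clusters on a modified Illumina MiSeq flow-cell annealed to 100 nM quencher-labelled ATP aptamer. Five buffer/ATP cycles were run with NaOH stripping and re-annealing between them. The fluorescence ratio per cluster is summed target-cycle over summed buffer-cycle Cy3 intensity, averaged per switch-domain sequence. Clusters outside 100-1000 RFU were excluded.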

Sequences with one replicate were seen in a single cluster, so their values are uncertain.

For TCCTTATTGA, the switch fluorescence ratio stood at 1.04. On to GGCCTGGAGT, for which the switch fluorescence ratio amounted to 0.99. In the case of ATTCGGATAA, the switch fluorescence ratio is 0.957.

Take CATAAGCACT: the switch fluorescence ratio was 1.3. In the case of TGAGCTACAT it was 1.07. For AGGGTGACAC, the switch fluorescence ratio was 0.9. Take CGGTCCCCTT: the switch fluorescence ratio turned out to be 1.05. As for GCGTGATCCT, the figure is 1.02; as for CCCCGTCGGT, 1.39; as for CTAGGTCCGA, 1.

With GGGTGAGTT, the switch fluorescence ratio stood at 1.

For CACGTCGCAA, the switch fluorescence ratio amounted to 1.24. As for GTGACACATA, the figure is 1; as for AGGATGACCT, 1.04; as for TGGGCTGGGT, 1.01. Take TAGCGAGCT: the switch fluorescence ratio was 1.01. With GATACTAGGC, the switch fluorescence ratio was determined as 0.997. Regarding CACGGGTAAC, the switch fluorescence ratio was found to be 1.04. Consider TGTATGTAGA, for which the switch fluorescence ratio came out at 0.973. With TTGAATCGGC, the switch fluorescence ratio was found to be 1.01. As for CAACGGGTTG, the figure is 1.02; as for TAACGATACA, 1.29. On to AAGAGGACCC, for which the switch fluorescence ratio worked out at 0.953.

GTGATATTTC: the switch fluorescence ratio was 0.96.

As to GTGGGTACGT, the switch fluorescence ratio stood at 0.971. In the case of TCATTATCAT it was 0.97. With CGTGACGTCG, the switch fluorescence ratio was 1.1. For the sequence AGGGGTGCG, the switch fluorescence ratio was 0.955. As for TGTCCGATTT, the figure is 0.956. As for CAGCGGAGTT, the figure is 0.997; as for ACCTAGCATA, 1.33. As to CGGGGCTAGT, the switch fluorescence ratio was found to be 1.18. For GGTTTCCGAG, the switch fluorescence ratio turned out to be 1.08. In the case of CAATCCCGAG it was 1.12; in that of CAGGGCCACG, 0.977. Regarding GACCCTGCA, the switch fluorescence ratio is 1.12. As for ATACCCACTA, the figure is 1.39. As for TACCTTCTAA, the figure is 1.13. In the case of GAGGATACTG it was 1.04; in that of TACAAAAATG, 1.02. Regarding ACAGCTAGTG, the switch fluorescence ratio amounted to 1.01. As to CGTGCGCGGG, the switch fluorescence ratio turned out to be 1.06.

Take GTGCCA: the switch fluorescence ratio turned out to be 1.01. As for TGGTAGGTTA, the figure is 1.02; as for ACCGTGGAGC, 1.06; as for GTGGTAGTT, 1.02.

In the case of GGGGGCCCAC, the switch fluorescence ratio was found to be 0.994.

For the sequence ACGCCGGGCG, the switch fluorescence ratio turned out to be 0.971. As to CTTTTATGAG, the switch fluorescence ratio came out at 1.

Consider ATTTGTGTGC, for which the switch fluorescence ratio stood at 1.01.

Consider CGGAACCGTT, for which the switch fluorescence ratio is 1.01.

As to CAACGAGCTA, the switch fluorescence ratio was found to be 1.1. As for CCTCGAGAA, the figure is 1.34. In the case of GAAAAACTGA it was 1.05. In the case of CGCCCTGACG, the switch fluorescence ratio came out at 0.982. Turning to TTCTCAAGGG, the switch fluorescence ratio turned out to be 0.999.

With GCCATTCAGC, the switch fluorescence ratio turned out to be 1.05. As for GTTATGACGT, the figure is 0.988; as for CAGGGCACGG, 0.984; as for GGATCAAAAC, 0.97.

Take GTTAGAAACT: the switch fluorescence ratio amounted to 1.04. As to TTTTGAAGA, the switch fluorescence ratio stood at 1.01. As for ACTGCGAGTA, the figure is 0.996; as for GTTTTATCTG, 0.977; as for CTAACAGTGG, 0.995. In the case of TGGGCGGTTT it was 1.01. As for TCGTGTAAGC, the figure is 1.08. With GCGGTAAACG, the switch fluorescence ratio amounted to 1.06. Turning to GAAGTTACTC, the switch fluorescence ratio stood at 1.15. As for TGATCCGGTA, the figure is 1.09. In the case of AATCCGGGGT it was 1.04; in that of GTGAATTGTC, 1.19. For TTGTGTGCTT, the switch fluorescence ratio turned out to be 1.01. Consider GGGGAGTTTT, for which the switch fluorescence ratio was 1. For the sequence TCACCGAACT, the switch fluorescence ratio was 1.24. As for GCAATTTTTC, the figure is 1.01; as for GCATCAGCAG, 1.02. As for GGGTACGGCA, the figure is 1.05; as for CCAGAAAGGT, 1.03; as for GGGTATATCT, 0.973. As for ACTTGGACTA, the figure is 1.08; as for TCTTAGACAG, 0.973; as for GTTGGCGCAG, 1. ACGACGGGGA: the switch fluorescence ratio turned out to be 1.07. In the case of TTCACATTTA it was 0.997.

As for GTCGCAAGTC, the switch fluorescence ratio worked out at 1.77. In the case of GACCGTATTG it was 1.03; in that of GCGTTAGTAA, 0.988. In the case of CGTGTTCGAC it was 0.946. Take TGATAGATAA: the switch fluorescence ratio is 1.05.

Turning to ATTCCAACCC, the switch fluorescence ratio amounted to 1.02. Regarding GCGGTGATTT, the switch fluorescence ratio was 0.958.

Regarding TTTTGCACAT, the switch fluorescence ratio stood at 0.986.

Regarding AGGGACGTCC, the switch fluorescence ratio stood at 1.04. In the case of ATGCGGCCGA it was 0.984; in that of ATCAAAAAGG, 1.02; in that of CCAAGGAAAT, 1.03. With GATTATCGAG, the switch fluorescence ratio is 1.01. As for AAGCGACCTG, the figure is 1.01. In the case of GGTCGGCCCT it was 1.01; in that of TCCAGTGCGT, 1.03.

AAAAACGATG: the switch fluorescence ratio amounted to 1.03.

On to GAGGTATTGA, for which the switch fluorescence ratio was determined as 1.01. As for GCTCTGACCC, the figure is 1.04; as for ATAGCTAATT, 1.01.

For TATCTACTGC, the switch fluorescence ratio came to 0.953. On to ACTTTTATT, for which the switch fluorescence ratio worked out at 1.18. Take TTGAAATCAT: the switch fluorescence ratio was determined as 0.984. For the sequence GCTACACGGT, the switch fluorescence ratio came to 1.03. In the case of AAGACGCGCT it was 1.02. In the case of TTCATGCGTG it was 1.01. Take ATCTGTGATT: the switch fluorescence ratio came to 0.989.

CCTCTACGGG: the switch fluorescence ratio amounted to 1.12. In the case of AGGTAACTCG, the switch fluorescence ratio is 0.993. As for GGCCTATAGC, the figure is 0.987. In the case of ACACTAGAAT it was 1.01. In the case of AGAGAAGTTT it was 0.999; in that of GTTGGAGAG, 0.994; in that of AGGGAGACTT, 0.991. Turning to GGCACACGTT, the switch fluorescence ratio was 1.02.
